{"source": "paper PMC12136788", "binders": {"B1": {"name": "170657327_170667349_2320_CDS_ENSG00000112584_ENST00000537664|human|control|control (ssRNA)", "RNA": "GGGAGUUCUACAGUCCGACGAUCAAACGCAUGCAAAUCCUCCAGGCAAAGCGUGUCCACCUGGACAAAGAGGUAGAUCAAGAGGCAGCACAAAGCUUGAAAUGGGCUUUCGACAGCCUGCAGCUCUUCUCUUGAGGAGGAAAGCAACAGAGGAUUGAGCAUCA"}, "B2": {"name": "chr4:129011843:129011844:-_ENSMUSG00000057236_ENSMUST00000102598|mus_hu|FALSE|FALSE (ssRNA)", "RNA": "GGGAGUUCUACAGUCCGACGAUCAGCAUGGGUCAUCACCAAAUCAUAAAGAAAAGGGGUGUUCUUUUUCCAUAUUUUGUAUUCCUCGUUGAUCACUCGUUCUUCCACUGCGUCGUCGAAGGCUGCGGGGACUGCACUCGGCAACAACAGAGGAUUGAGCAUCA"}, "B3": {"name": "chr4:76721835:76721836:+_ENSG00000138768_ENST00000264904|hu_mus|hu_hu_hu_mus_True|8_88 (ssRNA)", "RNA": "GGGAGUUCUACAGUCCGACGAUCGUUUGGCUGGGGUUUCUGAGACGUCUGGAAUACUAACUCAUGUUUGCUAAUAAAUCCUAGUUUCUCUAUGAAAUUCUCUUUGCCAAUCCUCUUCUCUAUUAGUGUUUUAGCUUUCUCUUUCAACAGAGGAUUGAGCAUCA"}, "B4": {"name": "chr16:17153567:17153568:-_ENSMUSG00000038965_ENSMUST00000090192|mus_mus|FALSE|FALSE (ssRNA)", "RNA": "GGGAGUUCUACAGUCCGACGAUCAAGCGCACUGUAUUCUCUGCUGGCAGACCCUCCCUCCAAGGUCACCACAAACCUGCUAUAACAGGUUCCCUGCAGAGACCCAGCCAGCACAGUCUGACUACAGAUAGGGACCAUGGGGGUCAACAGAGGAUUGAGCAUCA"}, "B5": {"name": "chrX:140365796:140365797:-_ENSMUSG00000031285_ENSMUST00000033642|mus_mus|mus_mus_mus_hu_False|48_58 (ssRNA)", "RNA": "GGGAGUUCUACAGUCCGACGAUCCUUCUCAUUACUCAGUGCCUGCAAGGUUCUGGUUCGGUAGAAGCUACAGUGGGCACUAUGAGUGGGACUUGGAAACCCAUUCAUCCGGGAGCCUCGCAUGUUCCUGGAUGUCUUAUCUCUCAACAGAGGAUUGAGCAUCA"}, "B6": {"name": "chr7:141441981:141441982:+_ENSG00000106028_ENST00000265304|hu_mus|hu_hu_hu_mus_False|28_28 (ssRNA)", "RNA": "GGGAGUUCUACAGUCCGACGAUCCUCAUGUCUUACAAACUGACGAAAUACCUGUAACACAGGUCUUCGAAACAUGGCUUCUGUUUUUCUUACAACCUAAUCUUUAGUUAGGCUUUUAAGGAAAGAAAGAAAAGAGAAAAAUGACAACAGAGGAUUGAGCAUCA"}, "B7": {"name": "chr13:60863204:60863205:+_ENSMUSG00000021559_ENSMUST00000077453|mus_mus|FALSE|FALSE (ssRNA)", "RNA": "GGGAGUUCUACAGUCCGACGAUCCAGUCCAUAAAGACCCUACCCAAGCCAAGGCUGCCCUCACCGGGACACCACUGAGCUAAUGGAAUUGUAGGACGUGCCACUGUUACAGCUUGAGGCAUAGGCCUCCUGGCCAUUGCCAUCCAACAGAGGAUUGAGCAUCA"}, "B8": {"name": "chr2:217001844:217001845:+_ENSG00000079246_ENST00000392132|hu_hu|motif|central (ssRNA)", "RNA": "GGGAGUUCUACAGUCCGACGAUCGCCGACUUGAGGAUUAGCUCUUUUGUCAUAAGCAUAUCGAACUAUGGCCACCAUGUCGGAGUCAUCCAAAGCAUGAAUCAGGGAGGAAAGUGCAACUGCAGCUGCCUCAUCAUCUCUUGCCAACAGAGGAUUGAGCAUCA"}, "B9": {"name": "chr16:30313237:30313238:-_ENSMUSG00000022533_ENSMUST00000100013|mus_mus|motif|central (ssRNA)", "RNA": "GGGAGUUCUACAGUCCGACGAUCAACAACCCUGAGGGAGACCCACAUUAAAAAAUCUUAUUUAUUUAAAAAGUUAAAAAGCGGCAUAUCAUUAUUUAACAAUUACUUUACCAGACAUUUCUGUCCUUUAAGUAUGUGCAUAAACAACAGAGGAUUGAGCAUCA"}, "B10": {"name": "178710416_178712391_709_3pUTR_ENSMUSG00000057335_ENSMUST00000057037|mouse|control|control (ssRNA)", "RNA": "GGGAGUUCUACAGUCCGACGAUCUCCCUCAGGCUUGCCAUUGGCCUUGAAAGCUCUUUGUUCAUCCUCCUCGGCGUCUCCCCACCAGGACGGCUGCCCAUAUAAUGGAGUGCCUCGGGGCAUAGCAGAGACAUCCAUGGGUUUCAACAGAGGAUUGAGCAUCA"}, "B11": {"name": "87021923_87022128_1712_CDS_ENSG00000005469_ENST00000331536|human|control|control (ssRNA)", "RNA": "GGGAGUUCUACAGUCCGACGAUCAAGUGGGUCCGUAAAGAGUUCUGGAACAGGAAGACCUUCCUCUUUUGCUAUGAGUAAGAGACCUAAAAGGUGACGAUCAAAUCCUUUUCCAGCUGAACAAUCUUUCAUCAUUUUAUUAUGCAACAGAGGAUUGAGCAUCA"}, "B12": {"name": "chr7:54823571:54823572:-_ENSG00000132432_ENST00000352861|hu_mus|hu_hu_hu_mus_False|28_28 (ssRNA)", "RNA": "GGGAGUUCUACAGUCCGACGAUCUCCCAUGAUAGCAAAUCCUAUAGCUGUAGCCAUGGCAAUCUUCUGGAAUUCUUUUCUGUCGGGUUUGGUGCAUCUUUUAACCAGCCGAAUGGAGUCCUUUACAAACUGCCGGCUGGGCUCCAACAGAGGAUUGAGCAUCA"}, "B13": {"name": "chr3:176740097:176740098:-_ENSG00000177565_ENST00000430069|hu_mus|hu_hu_hu_mus_True|68_78 (ssRNA)", "RNA": "GGGAGUUCUACAGUCCGACGAUCUGUUUUGUAUACCACAAAAGGAGGCACUUUCAGUAUCUGUAAAAGGUAUUUAAUCCUAAAACAUACUCACCUAGAGGAUAACUCAGGAAAACAAUCUGUUACACUCUAAGACCUACUCCACAACAGAGGAUUGAGCAUCA"}, "B14": {"name": "chr14:37946427:37946428:-_ENSMUSG00000041028_ENSMUST00000165649|mus_mus|motif|central (ssRNA)", "RNA": "GGGAGUUCUACAGUCCGACGAUCUGAUGGUUCCAAGGCUGCCUCUUUCAGUUCUUGUCCAGUUUUCCCACGGUGAGUCCGGAUUCUUGUCUUGGUAGCAUAUUCCCUGCUGGGUGUUACGAGCCAUUGGUUCUUUGUGAUGGACAACAGAGGAUUGAGCAUCA"}, "B15": {"name": "168329168_168329288_1550_3pUTR_ENSMUSG00000040596_ENSMUST00000169324|mouse|control|control (ssRNA)", "RNA": "GGGAGUUCUACAGUCCGACGAUCGGAUGAUCACCAUGUCCGUGUUCAUGUUCUCCAUGGAACUCUUCACAGAGUCAGUGGCAUGGCACCGGAAGCCAUUCAGGAUCAGCAUCCCUCGCUGUCUGGGCACAGCUCCAGUUCUCCCAACAGAGGAUUGAGCAUCA"}, "B16": {"name": "15288658_15288778_4096_CDS_ENSG00000074181_ENST00000263388|human|control|control (ssRNA)", "RNA": "GGGAGUUCUACAGUCCGACGAUCGCGGAAGAAGGGCGCGAGCGGCGCGGGGCGGCAGGAGCCCCCGUGGAGACAGGGGGCGGCCGCGCAGCUGGCGUUGCUGGCCCCCGGCGGCGACCCCGGGAAGCUGCGGCAGGAGGGUCCCAACAGAGGAUUGAGCAUCA"}, "B17": {"name": "chr16:53361121:53361122:+_ENSG00000177200_ENST00000398510|hu_hu|motif|central (ssRNA)", "RNA": "GGGAGUUCUACAGUCCGACGAUCAAACCUGAAACAAGGGCUAUAAAUACAAGGCAAUAACAGCUAUAAUUCUUUUAGUAACGGCCAACACAUACUUGGAUAUUCUUUCAACUGCAACUUUAGUAUUAUGUAAUUCUACUGAUUCAACAGAGGAUUGAGCAUCA"}, "B18": {"name": "chr17:7477944:7477945:+_ENSG00000161960_ENST00000293831|hu_hu|FALSE|FALSE (ssRNA)", "RNA": "GGGAGUUCUACAGUCCGACGAUCAUAACCCUUGAUACAAGGUAGAAUGGCUCGCUGCUGGAUGGCAGAGGGCUUCUCAAAACCAUACGCGUAGAUGCCACGGAGAAGGGACUCCGAGAGGUUCAUGUCAUCAAAGCUGUCAACCAACAGAGGAUUGAGCAUCA"}, "B19": {"name": "chr18:34476965:34476966:+_ENSMUSG00000005871_ENSMUST00000115781|mus_hu|FALSE|FALSE (ssRNA)", "RNA": "GGGAGUUCUACAGUCCGACGAUCCAAUUUUCUUCUUAAGGUUGGGCUUGGAGCUUCUUUGAUGAAAGUUGACUGGCGUACUAAUACAGGUCUUUCUGAUCUAUCAGAUUCACUUCCACUUGAUUUAGUUGAAGACAUUCUAGACAACAGAGGAUUGAGCAUCA"}, "B20": {"name": "chr14:78183846:78183847:+_ENSG00000119705_ENST00000557342|hu_hu|hu_hu_hu_mus_False|1_68 (ssRNA)", "RNA": "GGGAGUUCUACAGUCCGACGAUCUCUCAGAAAUCUUUCUUCAUCAGAUGUUUGAGCUCCGUGCAAAAGUUUUGGCCUUUGAGCUUGAACGUGGAUCUAUGGGAGGGAAAGCACUGUCAGAAAAGGUAAUUUUUUUUUCCGAAGCAACAGAGGAUUGAGCAUCA"}, "B21": {"name": "123332779_123332899_1241_3pUTR_ENSG00000106299_ENST00000223023|human|control|control (ssRNA)", "RNA": "GGGAGUUCUACAGUCCGACGAUCGGAGGUGCAGCUGUGGGAGCUCUUGAAGGUGGUGGGGGAGGAGCGCCUCUUCCCCUAGCAGGAGGAGGAGGAGGACCUGAGUUGUGUGGAGGGGGAGGAGGAGGAGGUGGCCCUCCCCUUCAACAGAGGAUUGAGCAUCA"}, "B22": {"name": "chr19:16212804:16212805:+_ENSG00000167460_ENST00000300933|hu_mus|hu_hu_hu_mus_False|78_98 (ssRNA)", "RNA": "GGGAGUUCUACAGUCCGACGAUCAACAAUUCUGGAGAAGAACAUCAAUGUAACAUGCAAUUAAUUAAAAGCUCAGUCAGAAGGCACAUGGGCAACAAUGAUCACCCCAGCAUUCUCGCUUGGAAUGCUUAAAGACAAUCUGUUCAACAGAGGAUUGAGCAUCA"}}, "note": "The other results are listed elsewhere or left out."}
{"molecular_target": "T1, UNK ZnF1-3 (human, UniProt Q9C0B0 31-174)", "T1 sequence": "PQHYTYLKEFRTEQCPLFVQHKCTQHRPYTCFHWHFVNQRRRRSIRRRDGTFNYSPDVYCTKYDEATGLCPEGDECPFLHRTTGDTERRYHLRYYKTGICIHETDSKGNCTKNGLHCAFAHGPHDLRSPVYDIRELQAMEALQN", "experiment": "nsRBNS (natural sequence RNA bind-n-seq); RBNS binding buffer (assumed for nsRBNS): 25 mM Tris pH 7.5, 150 mM KCl, 3 mM MgCl2, 0.01% Triton X-100, 500 ug/ml BSA, 20 U/ml SUPERase-In, 4 C; UNK is unkempt and MSI1 is Musashi-1; names of the RNAs are library labels; protein concentration not given here; high values mean tight binding", "units": {"binding signal": "enrichment R"}}
{"binder": "B1", "binding signal": 1.18}
{"binder": "B2", "binding signal": 1.4}
{"binder": "B3", "binding signal": 0.548}
{"binder": "B4", "binding signal": 0.911}
{"binder": "B5", "binding signal": 0.43}
{"binder": "B6", "binding signal": 0.632}
{"binder": "B7", "binding signal": 0.912}
{"binder": "B8", "binding signal": 1.47}
{"binder": "B9", "binding signal": 2.41}
{"binder": "B10", "binding signal": 0.641}
{"binder": "B11", "binding signal": 1.14}
{"binder": "B12", "binding signal": 0.833}
{"binder": "B13", "binding signal": 0.841}
{"binder": "B14", "binding signal": 0.409}
{"binder": "B15", "binding signal": 1.33}
{"binder": "B16", "binding signal": 0.968}
{"binder": "B17", "binding signal": 1.17}
{"binder": "B18", "binding signal": 1.14}
{"binder": "B19", "binding signal": 0.494}
{"binder": "B20", "binding signal": 1.44}
{"binder": "B21", "binding signal": 1.5}
{"binder": "B22", "binding signal": 1.43}
